Hit rate of the full screen: of about 43,000 compounds, about 200 (0.47%) were called active. Not shown: some 12% with an inconclusive outcome. The call rests on the fitted dose curve; in most records, active means well fitted cell-killing curve with a large enough effect; inconclusive means small, poorly fitted or top-dose-only effect, or effect the other way; inactive means flat fitted curve, though single readings scatter. This is one part of the list.
Assay: Cell viability qHTS assay in S16 Pmp22-F2sN cells; further: nearly all actives have a fitted effect of over 65% in size
Conditions: S16 Pmp22-F2sN Schwann cells viability, CellTiter-Glo, 24 h; series mostly up to 57.5 µM; activity change, negative = cytotoxicity: at the top concentration
Procedure, shortened: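 Viability was measured by CellTiter-Glo luminescence (15 min, room temperature). This followed 24 h at 37 °C of compound exposure (23 nL pin transfer) in S16 Pmp22-F2sN Schwann cells, 500-1,000 per well.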
On the % scale 0 is the no-effect control and ±100 the full control effect.

| SMILES | activity change, negative = cytotoxicity |
| --- | --- |
| O=c1cc(COc2ccccc2Cl)nc2scc(-c3ccccc3)n12 | inactive: 26.2% |
| COc1ccccc1CNC(=O)CCn1c(=O)c2ccccc2n(CC(=O)Nc2cc(Cl)ccc2C)c1=O | inactive: 0.299% |
| CCOC(=O)c1ccc(N2C(=O)c3[nH]nc(-c4ccc(OC)cc4)c3C2c2cccc(O)c2)cc1 (configuration not stated) | inactive: -13.2% |
| CCc1cccc(NC(=O)CSc2ncc3c(n2)-c2cc(Cl)ccc2N(C)S3(=O)=O)c1 | inactive: -3.25% |
| COc1ccc(NC(=O)CCS(=O)(=O)c2nc(-c3ccc4c(c3)OCO4)cc(C(F)(F)F)n2)cc1OC | inactive: -17.1% |
| CCC(C)NC(=O)CCSc1nc(-c2ccc3c(c2)OCO3)cc(C(F)(F)F)n1 (configuration not stated) | inactive: -0.177% |
| Cc1ccc(C2NC(=O)c3n[nH]c(-c4cccs4)c32)cc1 (configuration not stated) | inactive: -5.85% |
| Cc1ccc(Cl)cc1N1CCN(C(=O)Cn2nc(C)c3sc4ccccc4c3c2=O)CC1 | inactive: 4.21% |
| COc1ccc(-n2nc(C(=O)NCCc3ccc(OC)c(OC)c3)c3c4ccccc4n(C)c3c2=O)cc1 | inactive: -21.8% |
| Cc1ccccc1-c1nc(CS(=O)(=O)CC(=O)NCCCc2ccccc2)c(C)o1 | inactive: 10.6% |
| CCC(Sc1nnc2c3ccccc3n(CC)c2n1)C(=O)Nc1ccc(NC(C)=O)cc1 (configuration not stated) | inactive: -16% |
| CCCOc1cccc(C2c3c(oc4ccc(F)cc4c3=O)C(=O)N2CCc2ccc(OC)cc2)c1 (configuration not stated) | inactive: 5.79% |
| COc1cccc(C2C(C(=O)Nc3ccccc3OC)=C(C)Nc3nc(-c4ccco4)nn32)c1 (configuration not stated) | inactive: -2.44% |
| O=C(Cn1cnc2onc(-c3ccc(F)cc3)c2c1=O)N1CCN(c2ccc(F)cc2)CC1 | inactive: -11.6% |
| O=C(Cn1nc(Cc2cccnc2)c2ccccc2c1=O)Nc1ccc(F)c(Cl)c1 | inactive: -20.2% |
| COc1ccc(C(=O)NCC(c2ccc(Cl)cc2)N2CCCCC2)cc1 (configuration not stated) | inactive: 13.3% |
| COc1ccccc1CNC(=O)Cn1nc(C)n2cccc2c1=O | inactive: 0.0055% |
| CCC(C(=O)Nc1cc(C(F)(F)F)ccc1Cl)n1nc(C)c2sc3ccccc3c2c1=O (configuration not stated) | inactive: 9.27% |
| Cc1ccc(CN2C(=O)SC(Nc3ccc(Cl)cc3)C2=O)cc1 (configuration not stated) | inactive: 2.64% |
| CC1CCN(c2nc3ccc(C(=O)NC(C)C)cc3s2)CC1 | inactive: -16.2% |
| Cc1ccc(Cc2c(C)nc3nc(SCC(=O)NCCC(C)C)nn3c2C)cc1 | inactive: -5.73% |
| Cc1nn(C)c(C)c1S(=O)(=O)N(CC(=O)Nc1ccc(F)cc1F)c1ccc(C(C)C)cc1 | inactive: -9.44% |
| COc1ccc(NC(=O)Cn2c(=O)n(-c3ccc(C)cc3)c(=O)c3c2c2cc(C)ccc2n3C)cc1 | inactive: 1.25% |
| O=C(CN1C(=O)CCn2nc(-c3ccccc3)cc21)NCc1ccccc1 | inactive: -0.129% |

| SMILES | activity change, negative = cytotoxicity |
| --- | --- |
| COc1cccc(CNC(=O)C(=O)NCC(c2ccco2)S(=O)(=O)c2ccccc2)c1 (configuration not stated) | inactive: -10.1% |
| CCCCNC(=O)CSc1nc2cc3c(cc2c(=O)n1Cc1ccc(C(=O)NCCc2ccc(OC)c(OC)c2)cc1)OCO3 | inactive: -3.39% |
| Cn1c(=O)c(=O)n(C)c2cc(NS(=O)(=O)c3ccc(Br)cc3)c(Cl)cc21 | inactive: -0.0041% |
| CCc1ccc(-n2nc(CO)c(C(=O)NCc3ccccc3Cl)n2)cc1 | inactive: 1.15% |
| COc1ccc(NC(=O)N2CCCn3nc(C)cc32)cc1OC | inactive: 2.18% |
| CC(Oc1ccccc1)C(=O)Nc1ccc(C(=O)OCc2cc(=O)n3nc(C4CC4)sc3n2)cc1 (configuration not stated) | inactive: -6.83% |
| O=C(CCC(=O)N1Cc2ccccc2Oc2ncccc21)NCc1cccc(Cl)c1 | inactive: 2.51% |
| COc1ccc(Cc2nc3ccccc3n2Cc2ccccc2C)cc1 | inactive: -25.8% |
| Cc1cc2[nH]c(=O)c(=O)[nH]c2cc1S(=O)(=O)N1CCN(c2ccccc2)CC1 | inactive: 3.8% |
| COc1ccc(-c2cc3ccc(O)c(CN4CCCC(C)C4)c3oc2=O)cc1OC (configuration not stated) | inactive: -1.95% |
| O=C(NCc1cccc(Cl)c1)c1ccc(NC(=O)N2CCSc3ccccc32)cc1 | inactive: 1.15% |
| CCn1c(C(=O)NCc2ccccc2Cl)cc2sc(Cl)cc21 | inactive: -5.16% |
| COc1ccc(-c2cn3c(n2)sc2cc(C(=O)Nc4ccc(C)c(Cl)c4)ccc23)cc1 | inactive: 5.61% |
| CCOC(=O)c1[nH]c2c(c1Cc1ccccc1C)C(=O)CC(c1ccccc1)C2 (configuration not stated) | inactive: -28.4% |
| COC(=O)c1ccc(NC(=O)n2ncc3c(C)cccc32)cc1 | inactive: 2.57% |
| CCOc1ccc(-c2nnc(SCC(=O)Nc3ccc(C)cc3C)o2)cc1 | inactive: 8.16% |
| CC1=C(c2ccc(C(C)C)cc2)S(=O)(=O)N=C1N1CCC(C(=O)Nc2ccc(C)cc2)CC1 | inactive: 1.7% |
| Cn1c(=O)cc(SCC(=O)NCc2ccc(F)cc2)c2cc(Cl)ccc21 | inactive: 2.14% |
| Cc1ccc(S(=O)(=O)N2CCN(Cc3cc(=O)n4nc(-c5ccccc5Cl)sc4n3)CC2)cc1 | inactive: 1.42% |
| Cc1c(C(=O)N2CCCCCC2)c(S(=O)(=O)Nc2cccc(C#N)c2)c(C)n1C | inactive: -13.4% |
| CC1(C)N=C(SCc2ccc(Cl)cc2)c2ccccc2N1 | inactive: -18.2% |
| O=C(NCCc1ccccc1)C(=O)NCC(c1cccs1)S(=O)(=O)c1cccs1 (configuration not stated) | inactive: 4.86% |
| Cc1cc(=O)[nH]c2nnc(SCc3ccccc3F)n12 | inactive: -8.1% |

— PubChem BioAssay AID1508642 (National Center for Advancing Translational Sciences (NCATS), 2021)
